This continues a long series; more values of the same kind are listed elsewhere.
Assay: xn = mol fraction of the nth substance listed

CC(=O)O + O
Details	viscosity [mPa·s]
293.15 K, 101.33 kPa, x1 = 0.05405	1.342
293.15 K, 101.33 kPa, x1 = 0.06928	1.407
293.15 K, 101.33 kPa, x1 = 0.1111	1.66
293.15 K, 101.33 kPa, x1 = 0.14	1.742
293.15 K, 101.33 kPa, x1 = 0.221	2.126
293.15 K, 101.33 kPa, x1 = 0.2483	2.15
293.15 K, 101.33 kPa, x1 = 0.2736	2.284
293.15 K, 101.33 kPa, x1 = 0.2837	2.315
293.15 K, 101.33 kPa, x1 = 0.3175	2.392
293.15 K, 101.33 kPa, x1 = 0.3187	2.344
293.15 K, 101.33 kPa, x1 = 0.3459	2.446
293.15 K, 101.33 kPa, x1 = 0.4211	2.568
293.15 K, 101.33 kPa, x1 = 0.4804	2.658
293.15 K, 101.33 kPa, x1 = 0.5154	2.682
293.15 K, 101.33 kPa, x1 = 0.5454	2.675
293.15 K, 101.33 kPa, x1 = 0.5625	2.635
293.15 K, 101.33 kPa, x1 = 0.5775	2.681
293.15 K, 101.33 kPa, x1 = 0.7753	2.541
293.15 K, 101.33 kPa, x1 = 0.819	1.914
293.15 K, 101.33 kPa, x1 = 0.9722	1.338
293.15 K, 101.33 kPa, x2 = 0.0197	1.33
293.85 K, 101.33 kPa, x1 = 0.47	2.575
294.15 K, 101.33 kPa, x1 = 0.97	1.212
294.34 K, 101.33 kPa, x1 = 0.0296	1.145
295.85 K, 101.33 kPa, x1 = 0.5999	2.405
298.15 K, 101 kPa, x1 = 0.078	1.202
298.15 K, 101 kPa, x1 = 0.1141	1.352
298.15 K, 101 kPa, x1 = 0.1338	1.192
298.15 K, 101 kPa, x1 = 0.1617	1.572
298.15 K, 101.33 kPa, x1 = 0.06928	1.234
298.15 K, 101.33 kPa, x1 = 0.14	1.529
298.15 K, 101.33 kPa, x1 = 0.3175	2.077
298.15 K, 101.33 kPa, x1 = 0.9722	1.223
298.35 K, 101.33 kPa, x1 = 0.0296	1.033
302.34 K, 101.33 kPa, x1 = 0.0296	0.948
302.65 K, 101.33 kPa, x1 = 0.3914	1.984
302.85 K, 101.33 kPa, x1 = 0.97	1.062
303.05 K, 101.33 kPa, x1 = 0.45	1.994
303.05 K, 101.33 kPa, x1 = 0.819	1.543
303.15 K, 101 kPa, x1 = 0.1338	1.333
303.15 K, 101.33 kPa, x1 = 0.0446	0.9936
303.15 K, 101.33 kPa, x1 = 0.06928	1.099
303.15 K, 101.33 kPa, x1 = 0.1111	1.262
303.15 K, 101.33 kPa, x1 = 0.14	1.361
303.15 K, 101.33 kPa, x1 = 0.2111	1.546
303.15 K, 101.33 kPa, x1 = 0.221	1.638
303.15 K, 101.33 kPa, x1 = 0.2322	1.606
303.15 K, 101.33 kPa, x1 = 0.2483	1.665
303.15 K, 101.33 kPa, x1 = 0.2736	1.711
303.15 K, 101.33 kPa, x1 = 0.2837	1.76
303.15 K, 101.33 kPa, x1 = 0.3175	1.842
303.15 K, 101.33 kPa, x1 = 0.3187	1.801
303.15 K, 101.33 kPa, x1 = 0.3459	1.909
303.15 K, 101.33 kPa, x1 = 0.4211	1.995
303.15 K, 101.33 kPa, x1 = 0.4251	1.962
303.15 K, 101.33 kPa, x1 = 0.4804	2.04
303.15 K, 101.33 kPa, x1 = 0.5154	2.073
303.15 K, 101.33 kPa, x1 = 0.5454	2.064
303.15 K, 101.33 kPa, x1 = 0.5625	2.024
303.15 K, 101.33 kPa, x1 = 0.5775	2.083
303.15 K, 101.33 kPa, x1 = 0.6452	1.951
303.15 K, 101.33 kPa, x1 = 0.7145	1.824
303.15 K, 101.33 kPa, x1 = 0.7753	2.001
303.15 K, 101.33 kPa, x1 = 0.9722	1.14
303.15 K, 101.33 kPa, x2 = 0.0197	1.139
303.35 K, 101.33 kPa, x1 = 0.5999	2.014
303.45 K, 101.33 kPa, x1 = 0.47	1.994
303.65 K, 101.33 kPa, x1 = 0.0296	0.925
303.65 K, 101.33 kPa, x1 = 0.333	1.814
308.15 K, 101.33 kPa, x1 = 0.2	1.303
308.15 K, 101.33 kPa, x1 = 0.4	1.768
308.15 K, 101.33 kPa, x1 = 0.5	1.847
308.15 K, 101.33 kPa, x1 = 0.55	1.848
308.15 K, 101.33 kPa, x1 = 0.6	1.81
308.15 K, 101.33 kPa, x1 = 0.8	1.524
312.55 K, 101.33 kPa, x1 = 0.47	1.603
312.55 K, 101.33 kPa, x1 = 0.819	1.283
312.55 K, 101.33 kPa, x1 = 0.97	0.923
312.65 K, 101.33 kPa, x1 = 0.5294	1.623
312.65 K, 101.33 kPa, x1 = 0.6924	1.523
313.15 K, 101 kPa, x1 = 0.1338	1.067
313.15 K, 101.33 kPa, x1 = 0.03226	0.802
313.15 K, 101.33 kPa, x1 = 0.0446	0.7993
313.15 K, 101.33 kPa, x1 = 0.1139	1.053
313.15 K, 101.33 kPa, x1 = 0.2111	1.221
313.15 K, 101.33 kPa, x1 = 0.2308	1.335
313.15 K, 101.33 kPa, x1 = 0.2322	1.255
313.15 K, 101.33 kPa, x1 = 0.333	1.453
313.15 K, 101.33 kPa, x1 = 0.3914	1.543
313.15 K, 101.33 kPa, x1 = 0.4118	1.623
313.15 K, 101.33 kPa, x1 = 0.4251	1.517
313.15 K, 101.33 kPa, x1 = 0.5454	1.679
313.15 K, 101.33 kPa, x1 = 0.5625	1.593
313.15 K, 101.33 kPa, x1 = 0.6452	1.533
313.15 K, 101.33 kPa, x1 = 0.7145	1.381
313.15 K, 101.33 kPa, x2 = 0.0132	1.035
313.25 K, 101.33 kPa, x1 = 0.45	1.563
313.25 K, 101.33 kPa, x1 = 0.4999	1.593
313.45 K, 101.33 kPa, x1 = 0.5999	1.583
318.15 K, 101.33 kPa, x1 = 0.2	1.095
318.15 K, 101.33 kPa, x1 = 0.4	1.403
318.15 K, 101.33 kPa, x1 = 0.5	1.449
318.15 K, 101.33 kPa, x1 = 0.55	1.45
318.15 K, 101.33 kPa, x1 = 0.6	1.433
318.15 K, 101.33 kPa, x1 = 0.8	1.226
321.65 K, 101.33 kPa, x1 = 0.5625	1.343
322.45 K, 101.33 kPa, x1 = 0.45	1.293
322.55 K, 101.33 kPa, x1 = 0.97	0.812
322.65 K, 101.33 kPa, x1 = 0.4999	1.313
322.65 K, 101.33 kPa, x1 = 0.819	1.072
322.85 K, 101.33 kPa, x1 = 0.5294	1.313
322.95 K, 101.33 kPa, x1 = 0.47	1.293
323.05 K, 101.33 kPa, x1 = 0.6924	1.242
323.15 K, 101 kPa, x1 = 0.1338	0.8332
323.15 K, 101.33 kPa, x1 = 0.0446	0.6488
323.15 K, 101.33 kPa, x1 = 0.2111	0.957
323.15 K, 101.33 kPa, x1 = 0.2322	0.9904
323.15 K, 101.33 kPa, x1 = 0.4251	1.187
323.15 K, 101.33 kPa, x1 = 0.6452	1.198
323.15 K, 101.33 kPa, x1 = 0.7145	1.17

Reference: the CheMixHub viscosity set
